Out of some 410,000 compounds screened, about 6,400 (1.6%) were called active. Inconclusive means that the source gave no clear call. Such entries were picked first, then a sample of the others. Calls come from the whole dose curve; as a rule, active = well fitted inhibition curve with a large enough effect; inconclusive = small, poorly fitted or top-dose-only effect; inactive = no such curve, though single readings can be large or run the other way. Potencies of inconclusive entries are left out as doubtful fits.
target: Glucagon-like peptide 1 receptor (Homo sapiens) (UniProt P43220); assay: qHTS of GLP-1 Receptor Inverse Agonists (Inhibition Mode); conditions: HEK293 GLP-1R CRE-luciferase, luminescence, 24 h, GLP-1R form is constitutively active; series mostly up to 38.3 µM; note: nearly all actives have a fitted effect of over 55% in size
Method in brief: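 Inverse agonists were sought by their lowering of basal cAMP reporter luciferase output in HEK293 cells stably carrying constitutively active human GLP-1R, after 24 h compound treatment.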
Potency is the fitted concentration of half-maximal effect; tags give direction and shape of the fitted curve.

Sequence of UniProt P43220 (P43220 whole entry, looked up): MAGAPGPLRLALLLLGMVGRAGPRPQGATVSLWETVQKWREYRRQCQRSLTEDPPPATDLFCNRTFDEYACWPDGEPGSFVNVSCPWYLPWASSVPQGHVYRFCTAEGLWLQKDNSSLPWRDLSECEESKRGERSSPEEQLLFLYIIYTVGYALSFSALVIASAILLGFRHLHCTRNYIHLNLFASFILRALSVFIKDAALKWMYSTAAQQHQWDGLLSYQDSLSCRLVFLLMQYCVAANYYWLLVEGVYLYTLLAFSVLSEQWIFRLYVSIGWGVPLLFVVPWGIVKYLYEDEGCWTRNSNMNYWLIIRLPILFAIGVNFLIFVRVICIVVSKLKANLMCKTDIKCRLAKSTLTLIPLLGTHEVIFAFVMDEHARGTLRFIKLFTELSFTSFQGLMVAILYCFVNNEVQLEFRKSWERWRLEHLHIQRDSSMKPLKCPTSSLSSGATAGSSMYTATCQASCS

Structure (SMILES) | Potency
Oc1cccc2cnccc12 | inconclusive [inhibitor, single point]
Fc1cccc(Cc2c(-c3cccc(Cl)c3)nc3ccc(Br)cn23)c1 | inconclusive [inhibitor, single point]
COc1cccc(/C=C2\SC(=S)N(CCC(=O)Nc3ccc(O)cc3)C2=O)c1 | inconclusive [inhibitor, single point]
CN(Cc1cccs1)C(=O)c1cccc(S(=O)(=O)N2CCCCCC2)c1 | inconclusive [inhibitor, single point]
COc1ccccc1Nc1nnc(SCc2nnc(-c3cc(OC)c(OC)c(OC)c3)o2)s1 | inactive
Cc1ccsc1C(=O)OCC(=O)Nc1cccc(S(=O)(=O)N2CCCCC2)c1 | inconclusive [inhibitor, single point]
Nc1ccc(N2CCN(c3ncc(C(F)(F)F)cc3Cl)CC2)c(C(F)(F)F)c1 | inconclusive [inhibitor, partial curve]
Cc1ccc2nc(-c3ccc(SCC(=O)Nc4nnc(C)s4)nc3)[nH]c2c1 | inconclusive [inhibitor, partial curve, poor fit]
Cc1cccc(Nc2ncnc3onc(-c4ccc(F)cc4)c23)c1C | inactive
N#Cc1cccc(Nc2c3c(nc4ccccc24)CCCC3)c1 | inconclusive [inhibitor, single point]
Cc1cccc(Nc2nc(CC(=O)O)cs2)c1 | inactive
S=C(NCCc1c[nH]c2ccccc12)NC1CCCC1 | inactive
CCOc1ccc(C(=O)CN2C(=O)NC3(CCCc4ccccc43)C2=O)cc1 (centres undefined) | inconclusive [inhibitor, partial curve, poor fit]
O=C(c1ccc(C(F)(F)F)cc1)N1CCC(=O)N([C@H](COCc2ccccc2)Cc2ccccc2)CC1 | inconclusive [inhibitor, partial curve, poor fit]
O=C1c2ccccc2N2C(=O)c3ccccc3C2N1O (centres undefined) | inactive
Cc1sc2ncnc(N3CCC(C(=O)Nc4ccccc4C(C)(C)C)CC3)c2c1C | inconclusive [inhibitor, partial curve]
C=CCSc1nc2c(c(C3CC=CCC3)c1C#N)CCC2 (centres undefined) | inconclusive [inhibitor, single point]
COc1ccc2c(C)cc(SCC(=O)Nc3nsc(-c4ccccc4C)n3)nc2c1 | inactive
O=c1cc(CCl)nc(Cc2c(Cl)cccc2Cl)[nH]1 | inconclusive [inhibitor, partial curve, poor fit]

Reference: PubChem BioAssay AID624417 (National Center for Advancing Translational Sciences (NCATS), 2012)
